Assay results: PubChem BioAssay AID485294 (National Center for Advancing Translational Sciences (NCATS), 2010)
“And” between values parts separate entries of the source, which are not always exact repeats. Equal values may be shown once. The whole screen tested about 370,000 compounds, of which about 150 (0.041%) were called active. Inconclusive means that the source gave no clear call. Such entries were picked first, then a sample of the others. Calls follow the shape of the dose curve; as a rule, active = well fitted inhibition curve with a large enough effect; inconclusive = small, poorly fitted or top-dose-only effect; inactive = flat fitted curve, though single readings scatter. A potency beside an inconclusive call is a rough fit, not a confirmed value.
Also: nearly all actives have a fitted effect of over 25% in size.
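For activity change, negative = inhibition in this document: 0% = no-compound wells and -100% = no-enzyme wells.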
Potency is read from the fitted curve at half-maximal effect; tags tell the direction and shape of the fitted curve.

What follows are compounds tested against Beta-lactamase (Escherichia coli (strain K12)) (UniProt P00811) (assay: qHTS Inhibitors of AmpC Beta-Lactamase (assay with detergent)). Conditions: AmpC hydrolysis of nitrocefin, absorbance 480 nm, 0.01% Triton; activity change, negative = inhibition: at 114 µM (top of the series).
Sequence of UniProt P00811 (P00811 whole entry, looked up): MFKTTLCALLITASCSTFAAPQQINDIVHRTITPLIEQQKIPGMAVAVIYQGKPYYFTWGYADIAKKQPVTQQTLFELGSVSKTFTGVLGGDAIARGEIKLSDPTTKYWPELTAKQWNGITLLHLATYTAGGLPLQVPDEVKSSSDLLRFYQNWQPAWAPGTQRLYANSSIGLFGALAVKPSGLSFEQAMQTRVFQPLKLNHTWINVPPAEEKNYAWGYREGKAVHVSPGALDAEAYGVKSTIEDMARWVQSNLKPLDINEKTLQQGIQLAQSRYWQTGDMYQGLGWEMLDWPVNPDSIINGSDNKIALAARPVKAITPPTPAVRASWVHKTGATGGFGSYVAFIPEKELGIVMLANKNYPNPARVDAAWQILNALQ
Method in brief: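 20 mM phosphate pH 7.0 + 0.01% (detergent screen) or 0.0001% Triton X-100; 5.3 nM AmpC reagent; cpd preinc 15 min RT; nitrocefin (800 uM stock) to start; A480 q20 s × 4 min; Activity was normalised to no-enzyme and no-compound control wells.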
With `Nc1c(C(=O)NC2CCCC2)c2nc3ccccc3nc2n1N` the Potency was inconclusive: 1.41 µM [inhibitor, full curve, poor fit]. `O=C(CCNC(=O)c1ccccc1Cl)Nc1nc2ccccc2s1` was tested, and the “activity change, negative = inhibition” value was inactive: -0.354%. For `COc1ccccc1CNC(=O)c1cnc2sccn2c1=O`, the Potency was inconclusive: 14.1 µM [inhibitor, full curve, poor fit]. With `Cc1cccc(NC(=O)C2CCCN(c3nc(C)cc(C)n3)C2)c1` (stereo not given) the “activity change, negative = inhibition” value was inactive: -7.3%. With `CC(=O)Oc1ccc(C(=O)Nc2ccc(C3(C#N)CCCC3)cc2)cc1` the Potency was inconclusive: 0.794 µM [inhibitor, partial curve]. For `Cc1ccc(S(=O)(=O)CCC(=O)c2ccc(F)cc2)cc1`, the “activity change, negative = inhibition” value was inactive: 6.98%. With `CCOc1cccc(C(=O)N(Cc2ccc(C(C)C)cc2)C2CCS(=O)(=O)C2)c1` (stereo not given) the Potency was inconclusive: 89.1 µM [inhibitor, single point]. `CCCn1c(-c2cccc(F)c2)nc2c1c(=O)[nH]c(=O)n2Cc1ccccc1` was tested, and the Potency was inconclusive: 2 µM [inhibitor, full curve, poor fit]. With `O=Cc1ccc(O)cc1O` the “activity change, negative = inhibition” value was inactive: -12.6%. In the case of `Cc1ccc(C(=O)NCC(=O)OCC(=O)c2ccc(Cl)s2)cc1`, the Potency was inconclusive: 112 µM [inhibitor, partial curve, poor fit]. With `S=C(Nc1ccc2c(c1)OCCO2)Nc1ccc2c(c1)OCO2` the “activity change, negative = inhibition” value was inactive: -6.45%. `CCOC(=O)C1C(=O)C=C(c2cccs2)CC1c1ccccc1` (stereo not given) was tested, and the Potency was inconclusive: 20 µM [inhibitor, full curve, poor fit]. `COCC(C)NC(=O)COc1ccc(Cl)cc1Cl` (stereo not given) was tested, and the “activity change, negative = inhibition” value was inactive: -4.25%. With `O=C(C1CCCCN1S(=O)(=O)c1ccccc1)N1CCCCC1` (stereo not given) the Potency was inconclusive: 3.98 µM [inhibitor, full curve, poor fit]. In the case of `CCC(=O)NC(=S)Nc1ccc2oc(-c3ccc(OC)cc3)nc2c1`, the Potency was inconclusive: 17.8 µM [inhibitor, full curve]. With `Cc1ccc(S(=O)(=O)NCc2ccncc2)cc1` the Potency was inconclusive: 1 µM [inhibitor, full curve, poor fit]. `N#Cc1cccc(NC(=O)c2nc(-c3ccccc3)n(-c3ccccc3)n2)c1` was tested, and the Potency was inconclusive: 39.8 µM [inhibitor, partial curve]. With `CCCCN(CCCC)C(=O)c1nsnc1-c1ccccc1O` the Potency was inconclusive: 4.47 µM [inhibitor, full curve, poor fit]. In the case of `CCCN1CCN(CCCNC(=O)c2cc3c(s2)-c2c(C)cccc2OC3)CC1`, the Potency was “inactive and inconclusive: 5.01 µM [inhibitor, full curve, poor fit]”. With `CCN(C(=O)c1ccc(Br)o1)C1CCS(=O)(=O)C1` (stereo not given) the Potency was inconclusive: 0.562 µM [inhibitor, full curve, poor fit].
